# Test results published in article PMC7673538 (PLoS Biology, 2020).
# How the values were obtained:
# Rluc-CV-B3 = type: cell-based
# [1] = tested on: rat primary cortical cultures
# [2] = tested on: rat primary cortical cultures; test: MEA recordings of spontaneous neuronal activity in rat primary cortical cultures; settings: 10µM; 0.5h
smiles,measurement,setting,value
"COc1ccc(N(Cc2ccc(F)cc2)C(=O)c2ccco2)cc1 [Compound 1, N-(4-fluorobenzyl)-N-(4-methoxyphenyl)furan-2-carboxamide]",resistance conferred by 2C mutation F190L (in words),"Rluc-CV-B3; Rluc-CV-B3 2C[F190L], 8 hours post infection",conferred compound 1 resistance
"COc1ccc(N(Cc2ccc(F)cc2)C(=O)c2cc[nH]c2)cc1 [Compound 12a, N-(4-Fluorobenzyl)-N-(4-methoxyphenyl)-1H-pyrrole-3-carboxamide]","effect on MSR, MBR and MNBR (in words)",[1],without effect
"O=C(c1cc[nH]c1)N(Cc1ccc(F)cc1)c1ccccc1 [Compound 12b, N-(4-Fluorobenzyl)-N-phenyl-1H-pyrrole-3-carboxamide]","effect on MSR, MBR and MNBR (in words)",[1],without effect
"O=C(c1ccco1)N(Cc1ccc(F)cc1)c1ccccc1 [Compound 19b, N-(4-Fluorobenzyl)-N-phenylfuran-2-carboxamide]","effect on MSR, MBR and MNBR (in words)",[1],without effect
"O=C(c1ccco1)N(Cc1ccc(C(F)(F)F)cc1)c1ccccc1 [Compound 19d, N-phenyl-N-(4-(trifluoromethyl)benzyl)furan-2-carboxamide]",resistance conferred by 2C mutations F190L/H243R (in words),"Rluc-CV-B3; Rluc-CV-B3 2C[F190L/H243R], Fig 4B",high level of resistance
same,resistance conferred by 2C mutation H243R (in words),"Rluc-CV-B3; Rluc-CV-B3 2C[H243R], Fig 4B",did not provide any resistance
same,"effect on MSR, MBR and MNBR (in words)",[1],without effect
same,Number of Bursts,[2],118.7% of control
same,Number of Network Bursts,[2],124.8% of control
same,Number of Spikes,[2],84.5% of control
